The campaign covered roughly 48,000 compounds. About 120 (0.25%) were called active. About 4% were inconclusive and are not listed. The call rests on the fitted dose curve; in most records, active means well fitted activation curve with a large enough effect; inconclusive means small, poorly fitted or top-dose-only effect, or another doubt; inactive means no such curve, though single readings can be large or run the other way. Some of the results follow.
test: Primary qHTS for Identification of Small Molecule Activators of Huntingtin-Antisense Promoter Activity; conditions: HEK293 HTT-AS promoter firefly luciferase reporter, 24 h; series mostly up to 57.5 µM; activity change, positive = activation: at the top concentration; further: nearly all actives have a fitted effect of over 55% in size
Procedure, shortened: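 Luminescence was read after Dual-Glo reagent and a 10 min room-temperature incubation. Values were normalized to vehicle (0% activity) and zero RLU (-100% activity). Reporter HEK293 cells had been exposed to compounds (up to 57.5 uM final) for 24 h.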

Activity change, positive = activation, inactive:
CCc1cc(C(=O)NCc2ccccc2)no1 4.58% [at 11.5 µM, percent change from vehicle, -100% = no light], Cc1ccc(CN2COc3ccc4c(-c5ccccc5)cc(=O)oc4c3C2)cc1 -16.5%, Cc1cc(C)nc(-n2nc(C)c3c2N(C)C(=O)CC3c2ccc(Cl)cc2)n1 (stereo not given) -11.8%, Cc1c(C(=O)Nc2cccc(Cl)c2)oc2ccc(S(=O)(=O)N3CCCCCC3)cc12 -8.65%, Cc1cc(-c2ccc(S(=O)(=O)Nc3ccccc3F)s2)on1 -33.9%, CC(NC(=O)Cc1ccc(NC(=O)N2CCSc3ncccc32)cc1)c1ccccc1 (stereo not given) -20.3%, CCCOc1ccc(C(=O)Nc2ccc(NC(=O)c3ccccc3)c(Br)c2)cc1 -27.5%, CCc1cccc(NC(=O)Cn2nc(-c3cc(C)ccc3C)ccc2=O)c1 -24.7%, Cc1nnc(NCc2ccccc2)c2c1nnn2Cc1ccc(F)cc1 -22.7%, N=C(N=C(N)N)N1CCOCC1, Cc1ccc(CN2C(=O)C3(c4ccccc42)N(c2cccc(C(F)(F)F)c2)C(=O)CS3(=O)=O)cc1 (stereo not given) -26.4%, O=c1cc(CSc2n[nH]c(-c3ccccc3)n2)[nH]c2ccccc12 -38.1%, COc1ccccc1NC(=O)CSc1oc(-c2cccs2)nc1S(=O)(=O)c1ccccc1 -15.6%, COc1cc(NC(=O)c2cc3c(=O)n(Cc4cccs4)ccc3nc2C)cc(OC)c1OC -25.6%, CC(Oc1ccccc1Cl)C(=O)N1CCN(CCc2ccccn2)CC1 (stereo not given) 4.98% [at 11.5 µM, percent change from vehicle, -100% = no light], O=C(CN1C(=O)COc2ccc(S(=O)(=O)N3CCOCC3)cc21)N1CCN(c2ccc(F)cc2)CC1 -4.66%, CC(Sc1nc(=O)cc(N)n1CCc1ccccc1)C(=O)Nc1ccccc1C#N (stereo not given) 13.1%, COc1ccc(OC)c(NC(=O)CN2C(=O)CCc3cc(S(=O)(=O)N4CCCCC4)ccc32)c1 -11.3%, O=C(NC1CCCCC1)c1ccc2c(c1)N(Cc1ccc(Cl)cc1)C(=O)c1ccccc1S2(=O)=O -15.9%, CCc1ccc2oc(C(=O)Nc3sc4c(c3C(=O)NC)CCCC4)cc(=O)c2c1 -2.96%, O=C(Nc1ccc(Cl)cc1F)c1cc(S(=O)(=O)NCc2ccc3c(c2)OCO3)ccc1F -11.8%, CCOc1ccc(C(=O)Nc2cccc(OCc3cc(=O)n4cc(C)sc4n3)c2)cc1 13.3%, CCCCOC(=O)c1cccc(NC(=O)c2cc3ccccc3o2)c1 -52.4%, CN(C)CCn1c2c(c(SCC(=O)Nc3ccc(F)cc3F)nc1=O)CCC2 -4.71%, CCCCn1cc(S(=O)(=O)c2cccc(C)c2)c(=O)c2cc(F)c(N3CCOCC3)cc21 -12.6%

— PubChem BioAssay AID1508624 (National Center for Advancing Translational Sciences (NCATS), 2021)
